Blank lines part the entries; values can stand above or below the binder they belong to.
Assays:
[1] = target: the molecule itself; assay: fluorescent foci in HEK293 cells; homodimer induced by 500 nM B/B Homodimerizer
[2] = target: the molecule itself; assay: fluorescent foci in U2OS cells; homomultimer formation of p53
[3] = target: the molecule itself; assay: fluorescent foci in HEK293 cells; homomultimer formation of p53
[4] = target: T1, PB1-mAG1-MDM2; assay: fluorescent foci in HEK293 cells, combination (B); extinguished by 40 uM Nutlin-3
T1 construct: also called PB1-hmAG1-MDM2

[5] = target: the molecule itself; assay: icy spot detection of fluorescent foci in HEK293 cells, when foci started to be seen after B/B Homodimerizer addition
[6] = target: T1, PB1-mAG1-MDM2; assay: fluorescent foci in HEK293 cells, combination (A); extinguished by 40 uM Nutlin-3
[7] = target: PB1-MDM2; assay: fluorescent foci in HEK293 cells; extinguished by 40 uM Nutlin-3

B1: Tankyrase-mAG1-FKBP12 mutant (other, not shown: small tags and cut ends)
chain: MLIDAMPPEALPTCFKPQATVVSASLISPASTPSCLSAASSIDNLTGPLAELAVGGASNAGDGAAGTERKEGEVAGLDMNISQFLKSLGLEHLRDIFETEQITLDVLADMGHEELKEIGINAYGHRHKLIKGVERLLGGQQGTNPYLTFHCVNQGTILLDLAPEDKEYQSVEEEMQSTIREHRDGGNAGGIFNRYNVIRITGNSADGGGGSGGSGGSGGGSTQGTSMVSVIKPEMKIKLCMRGTVNGHNFVIEGEGKGNPYEGTQILDLNVTEGAPLPFAYDILTTVFQYGNRAFTKYPADIQDYFKQTFPEGYHWERSMTYEDQGICTATSNISMRGDCFFYDIRFDGTNFPPNGPVMQKKTLKWEPSTEKMYVEDGVLKGDVNMRLLLEGGGHYRCDFKTTYKAKKEVRLPDAHKIDHRIEILKHDKDYNKVKLYENAVARYSMLPSQA[about 100 residues not written out]
notes: also called Tankyrase-mAG1-FKBP12 (F36V); Tankyrase-hmAG1-FKBP12 mutant
binding result [1]: binds

B2: p53-mAG1-PB1 (other, not shown: small tags and cut ends)
chain: [about 400 residues not written out]MVSVIKPEMKIKLCMRGTVNGHNFVIEGEGKGNPYEGTQILDLNVTEGAPLPFAYDILTTVFQYGNRAFTKYPADIQDYFKQTFPEGYHWERSMTYEDQGICTATSNISMRGDCFFYDIRFDGTNFPPNGPVMQKKTLKWEPSTEKMYVEDGVLKGDVNMRLLLEGGGHYRCDFKTTYKAKKEVRLPDAHKIDHRIEILKHDKDYNKVKLYENAVARYSMLPSQAKTSNSADGGGGSGGSGGSGGGSTQGTGMASLTVKAYLLGKEDAAREIRRFSFCCSPEPEAEAEAAAGPGPCERLLSRVAALFPALRPGGFQAHYRDEDGDLVAFSSDEELTMAMSYVKDDIFRIYIKEK
notes: whole, on cells; Expressed inside U2OS cells; also called p53-hmAG1-PB1
binding result [2]: binds

B3: DGKd-mAG1-p53 (other, not shown: small tags and cut ends)
chain: MPVHLWGTEEVAAWLEHLSLCEYKDIFTRHDIRGSELLHLERRDLKDLGVTKVGHMKRILCGIKELSRSTGNSADGGGGSGGSGGSGGGSTQGTSMVSVIKPEMKIKLCMRGTVNGHNFVIEGEGKGNPYEGTQILDLNVTEGAPLPFAYDILTTVFQYGNRAFTKYPADIQDYFKQTFPEGYHWERSMTYEDQGICTATSNISMRGDCFFYDIRFDGTNFPPNGPVMQKKTLKWEPSTEKMYVEDGVLKGDVNMRLLLEGGGHYRCDFKTTYKAKKEVRLPDAHKIDHRIEILKHDKDYNKVKLYENAVARYSMLPSQAK[about 400 residues not written out]
notes: whole, on cells; also called DGKd-hmAG1-p53
binding result [3]: binds

B4: Tankyrase-mAG1-p53 (other, not shown: small tags and cut ends)
chain: MLIDAMPPEALPTCFKPQATVVSASLISPASTPSCLSAASSIDNLTGPLAELAVGGASNAGDGAAGTERKEGEVAGLDMNISQFLKSLGLEHLRDIFETEQITLDVLADMGHEELKEIGINAYGHRHKLIKGVERLLGGQQGTNPYLTFHCVNQGTILLDLAPEDKEYQSVEEEMQSTIREHRDGGNAGGIFNRYNVIRITGNSADGGGGSGGSGGSGGGSTQGTSMVSVIKPEMKIKLCMRGTVNGHNFVIEGEGKGNPYEGTQILDLNVTEGAPLPFAYDILTTVFQYGNRAFTKYPADIQDYFKQTFPEGYHWERSMTYEDQGICTATSNISMRGDCFFYDIRFDGTNFPPNGPVMQKKTLKWEPSTEKMYVEDGVLKGDVNMRLLLEGGGHYRCDFKTTYKAKKEVRLPDAHKIDHRIEILKHDKDYNKVKLYENAVARYSMLPSQAK[about 400 residues not written out]
notes: whole, on cells; also called Tankyrase-hmAG1-p53
binding result [3]: binds

B5: mAG1-PB1-p53 (other, not shown: small tags and cut ends)
chain: MVSVIKPEMKIKLCMRGTVNGHNFVIEGEGKGNPYEGTQILDLNVTEGAPLPFAYDILTTVFQYGNRAFTKYPADIQDYFKQTFPEGYHWERSMTYEDQGICTATSNISMRGDCFFYDIRFDGTNFPPNGPVMQKKTLKWEPSTEKMYVEDGVLKGDVNMRLLLEGGGHYRCDFKTTYKAKKEVRLPDAHKIDHRIEILKHDKDYNKVKLYENAVARYSMLPSQAKTSNSADGGGGSGGSGGSGGGSTQGTGMASLTVKAYLLGKEDAAREIRRFSFCCSPEPEAEAEAAAGPGPCERLLSRVAALFPALRPGGFQAHYRDEDGDLVAFSSDEELTMAMSYVKDDIFRIYIKEK[about 400 residues not written out]
notes: whole, on cells; Expressed inside U2OS cells; also called hmAG1-PB1-p53
binding result [2]: binds

B6: PB1-mCherry-FKBP12 mutant (other)
chain: MASLTVKAYLLGKEDAAREIRRFSFCCSPEPEAEAEAAAGPGPCERLLSRVAALFPALRPGGFQAHYRDEDGDLVAFSSDEELTMAMSYVKDDIFRIYIKE[about 100 residues not written out]
notes: also called PB1-mCherry-FKBP12 (F36V); not shown: mCherry fluorescent protein, Genbank AAV52164
binding result [1]: binds

B7: PKCi-mAG1-p53 (other, not shown: small tags and cut ends)
chain: MQVRVKAYYRGDIMITHFEPSISFEGLCNEVRDMCSFDNEQLFTMKWIDEEGDPCTVSSQLELEEAFRLYELNKDSELLIHVFPCTGNSADGGGGSGGSGGSGGGSTQGTSMVSVIKPEMKIKLCMRGTVNGHNFVIEGEGKGNPYEGTQILDLNVTEGAPLPFAYDILTTVFQYGNRAFTKYPADIQDYFKQTFPEGYHWERSMTYEDQGICTATSNISMRGDCFFYDIRFDGTNFPPNGPVMQKKTLKWEPSTEKMYVEDGVLKGDVNMRLLLEGGGHYRCDFKTTYKAKKEVRLPDAHKIDHRIEILKHDKDYNKVKLYENAVARYSMLPSQAK[about 400 residues not written out]
notes: whole, on cells; also called PKCi-hmAG1-p53
binding result [3]: binds

binding result [4]: binds
B8: p53(70)-PB1-mAG1 (other, not shown: small tags and cut ends)
chain: [about 60 residues not written out]PGPDEAPRMPEAAMASLTVKAYLLGKEDAAREIRRFSFCCSPEPEAEAEAAAGPGPCERLLSRVAALFPALRPGGFQAHYRDEDGDLVAFSSDEELTMAMSYVKDDIFRIYIKEKTGNSADGGGGSGGSGGSGGGSTQGTSMVSVIKPEMKIKLCMRGTVNGHNFVIEGEGKGNPYEGTQILDLNVTEGAPLPFAYDILTTVFQYGNRAFTKYPADIQDYFKQTFPEGYHWERSMTYEDQGICTATSNISMRGDCFFYDIRFDGTNFPPNGPVMQKKTLKWEPSTEKMYVEDGVLKGDVNMRLLLEGGGHYRCDFKTTYKAKKEVRLPDAHKIDHRIEILKHDKDYNKVKLYENAVARYSMLPSQAK
notes: also called p53(70)-PB1-hmAG1

B9: PB1-mAG1-FKBP12 mutant (other, not shown: small tags and cut ends)
chain: MASLTVKAYLLGKEDAAREIRRFSFCCSPEPEAEAEAAAGPGPCERLLSRVAALFPALRPGGFQAHYRDEDGDLVAFSSDEELTMAMSYVKDDIFRIYIKEKTGNSADGGGGSGGSGGSGGGSTQGTSMVSVIKPEMKIKLCMRGTVNGHNFVIEGEGKGNPYEGTQILDLNVTEGAPLPFAYDILTTVFQYGNRAFTKYPADIQDYFKQTFPEGYHWERSMTYEDQGICTATSNISMRGDCFFYDIRFDGTNFPPNGPVMQKKTLKWEPSTEKMYVEDGVLKGDVNMRLLLEGGGHYRCDFKTTYKAKKEVRLPDAHKIDHRIEILKHDKDYNKVKLYENAVARYSMLPSQA[about 100 residues not written out]
notes: Expressed in HEK293 cells; Homodimer forms only through the drug B/B Homodimerizer (AP20187); also called PB1-hmAG1-FKBP12 mutant
fluorescence intensity of foci relative to before the B/B Homodimerizer addition [5]: 1.9 times

B10: TEL-mAG1-p53 (other, not shown: small tags and cut ends)
chain: MPRALRMEEDSIRLPAHLRLQPIYWSRDDVAQWLKWAENEFSLRPIDSNTFEMNGKALLLLTKEDFRYRSPHSGDVLYELLQHILKQRTGNSADGGGGSGGSGGSGGGSTQGTSMVSVIKPEMKIKLCMRGTVNGHNFVIEGEGKGNPYEGTQILDLNVTEGAPLPFAYDILTTVFQYGNRAFTKYPADIQDYFKQTFPEGYHWERSMTYEDQGICTATSNISMRGDCFFYDIRFDGTNFPPNGPVMQKKTLKWEPSTEKMYVEDGVLKGDVNMRLLLEGGGHYRCDFKTTYKAKKEVRLPDAHKIDHRIEILKHDKDYNKVKLYENAVARYSMLPSQAK[about 400 residues not written out]
notes: whole, on cells; also called TEL-hmAG1-p53
binding result [3]: binds

binding result [6]: binds | binding result [7]: binds
B11: p53(70)-mAG1-PB1 (other, not shown: small tags and cut ends)
chain: [about 60 residues not written out]PGPDEAPRMPEAAMVSVIKPEMKIKLCMRGTVNGHNFVIEGEGKGNPYEGTQILDLNVTEGAPLPFAYDILTTVFQYGNRAFTKYPADIQDYFKQTFPEGYHWERSMTYEDQGICTATSNISMRGDCFFYDIRFDGTNFPPNGPVMQKKTLKWEPSTEKMYVEDGVLKGDVNMRLLLEGGGHYRCDFKTTYKAKKEVRLPDAHKIDHRIEILKHDKDYNKVKLYENAVARYSMLPSQAKTSNSADGGGGSGGSGGSGGGSTQGTGMASLTVKAYLLGKEDAAREIRRFSFCCSPEPEAEAEAAAGPGPCERLLSRVAALFPALRPGGFQAHYRDEDGDLVAFSSDEELTMAMSYVKDDIFRIYIKEK
notes: also called p53(70)-hmAG1-PB1
